Experimental data from PubChem BioAssay AID1458 (National Center for Advancing Translational Sciences (NCATS), 2008).
The whole screen tested about 210,000 compounds, of which about 5,900 (2.8%) were called active. This list was built around the results that the source calls inconclusive (neither active nor inactive); the mix of calls is not that of the screen. Calls come from the whole dose curve; as a rule, active = well fitted activation curve with a large enough effect; inconclusive = small, poorly fitted or top-dose-only effect; inactive = no such curve, though single readings can be large or run the other way. Where the call is inconclusive, the potency comes from a doubtful curve fit.
Potency is the fitted concentration of half-maximal effect; tags give direction and shape of the fitted curve.

Assay: qHTS Assay for Enhancers of SMN2 Splice Variant Expression; note: nearly all actives have a fitted effect of over 55% in size; for activity change, positive = activation: % of control where 0% means no effect
Conditions: HEK293 SMN2-luciferase splicing reporter, luminescence, 30-36 h; activity change, positive = activation: at 46.1 µM (top of the series)
Summary of the method: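 HEK293 cells carry an SMN2 […]–luciferase reporter in which exon 7 inclusion puts luciferase in frame. Cells were plated 10-12 h before compound addition, then incubated 30-36 h at 37C. ONE-Glo luminescence was read; sodium butyrate at 4.5 mM final served as control.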
For CS(=O)(=O)NNC(=O)c1cc2cc3ccccc3nc2s1, the Potency was inconclusive: 11.2 µM [activator, partial curve, poor fit].
For Cc1ccc(Cn2ccc(NC(=O)c3cc(-c4ccc(F)cc4)on3)n2)cc1, the Potency was “inactive”.
With COc1ccc(C(=O)ON=C2C=C(C)C(=O)C(C)=C2)cc1 the activity change, positive = activation was inconclusive: 32.6% [activator].
In the case of CC1c2[nH]c3ccccc3c2CCN1C(=O)Nc1ccccc1 (stereo unspecified), the Potency is reported as “inactive”.
For S=C(NCc1ccco1)Nc1ccc(Oc2ccccc2)cc1, the Potency was inconclusive: 11.2 µM [activator, partial curve].
In the case of O=c1c(Br)c(N2CCCC2)cnn1-c1ccccc1, the Potency is reported as active: 11.2 µM.
For Cc1ccc(C2=NN3C(C2)c2ccccc2OC32C(=O)Nc3ccccc32)cc1 (stereo unspecified), the Potency was inconclusive: 20 µM [activator, single point].
In the case of COc1ccc(C(=O)N/N=C/c2cccc3cccnc23)cc1, the Potency is reported as “inactive”.
In the case of CC12CCC(C)(c3nc4ccccc4nc31)C2(C)C, the Potency is reported as “inactive”.
With CCCCCCNS(=O)(=O)c1ccc(Cl)s1 the Potency was inconclusive: 0.355 µM [activator, full curve, poor fit].
For Nc1nc(CN2CCOCC2)cs1, the Potency was inconclusive: 7.08 µM [activator, partial curve, poor fit].
For CCCCc1nc2c(c3c1C[C@H](C)OC3)CN(C(=O)N[C@@H](C)c1ccccc1)CC2, the activity change, positive = activation was inactive: 8.03% [at 9.22 µM].
With c1ccc2c(c1)ncn2CCCCOc1ccc2c(c1)CCC2 the Potency was “inactive”.
In the case of Cc1cc2c3c(cccc3n1)C(=O)c1ccccc1-2, the Potency is reported as “inactive”.
With O=C(CSc1nnc(-c2ccc3c(c2)OCCO3)o1)N1CCCC1 the Potency was inconclusive: 28.2 µM [activator, single point].
With CCC(NC(=O)Nc1ncccc1C)(C(F)(F)F)C(F)(F)F the Potency was inconclusive: 8.91 µM [activator, partial curve].
For CC(C)CC(=O)Nc1cc2nn(-c3ccccc3)nc2cc1Cl, the Potency was inconclusive: 12.6 µM [activator, single point].
For Cc1csc(NC(=O)c2ccc(C)c([N+](=O)[O-])c2)n1, the Potency was active: 3.55 µM.
In the case of CCc1ccc(CNC(=O)c2cnc3sc4cc(OC)ccc4n3c2=O)cc1, the Potency is reported as “inactive”.
In the case of COc1ccc(CCNC(=O)c2ccc(CNc3nc(=S)[nH]c4ccccc34)cc2)cc1OC, the Potency is reported as “inactive”.
With O=C(Nc1ccc2c(c1)Cc1ccccc1-2)c1ccc(Br)o1 the Potency was inconclusive: 11.2 µM [activator, partial curve].
For COc1ccc(N=CC2=C(O)c3ccccc3C2=O)cc1, the Potency was active: 3.98 µM.
In the case of CNC(=S)N/N=C/c1cn(CCOc2ccccc2OC)c2ccccc12, the Potency is reported as inconclusive: 10 µM [activator, partial curve].
For COc1ccccc1NC(=O)c1csc2c1CCCC2, the Potency was “inactive”.
For O=C(Nc1ccc(C(F)(F)F)cc1)C1CCCN(c2cnccn2)C1 (stereo unspecified), the Potency was “inactive”.
With O=C(/C=C/c1ccc(OCCCF)cc1)Nc1ccnc(-c2ccncc2)n1 the Potency was “inactive”.
For COc1ccccc1CC(=O)Nc1cccc2c1CCCC2, the Potency was active: 4.47 µM.
With O=C1CN(C(=O)/C=C/c2ccc(Cl)cc2Cl)CCN1 the Potency was inconclusive: 22.4 µM [activator, single point].
For COc1ccc(C2=CC(=O)CC(c3ccc(OC)cc3)C2)cc1 (stereo unspecified), the Potency was inconclusive: 12.6 µM [activator, partial curve].
For Cn1cc(C(=O)c2ccc(Cl)cc2Cl)cc1C(=O)N/N=C(\N)COc1ccc(Cl)cc1Cl, the Potency was “inactive”.
With COCCCNC(=O)CCCCn1c(=O)c2ccccc2n(CC(=O)Nc2ccc(C)cc2C)c1=O the Potency was “inactive”.
In the case of CCC1/C(=N\O)CC(c2ccco2)NC1c1ccco1 (stereo unspecified), the Potency is reported as inconclusive: 3.98 µM [activator, partial curve].
For COc1ccc(-c2noc(-c3ccc(Cl)cc3)n2)cc1, the Potency was active: 11.2 µM.
With CCOC(=O)C1CCCN(c2ncnc3c2cnn3-c2cccc(C)c2)C1 (stereo unspecified) the Potency was “inactive”.
For Cc1cccc(OCCn2c(=O)sc3ccccc32)c1, the Potency was active: 12.6 µM.
With CCCC(=O)N1CCN(c2ccc(NC(=O)c3ccco3)cc2)CC1 the Potency was “inactive”.
In the case of O=c1[nH]c(N/N=C\c2ccc(F)cc2)nc2ccccc12, the Potency is reported as active: 10 µM.
In the case of c1ccc(OCCCc2nc(-c3ccccn3)no2)cc1, the Potency is reported as inconclusive: 22.4 µM [activator, single point].
In the case of Cc1ccc(NC(=O)c2c(C)noc2C)cc1, the Potency is reported as “inactive”.
For CCS(=O)(=O)Nc1ccc(C2=NN(C(=S)Nc3ccccc3)C(c3ccco3)C2)cc1 (stereo unspecified), the Potency was inconclusive: 35.5 µM [activator, single point].
For COc1ccc(-n2c(C)nc3cc(C(=O)NCc4ccc5c(c4)OCO5)ccc32)cc1, the Potency was inconclusive: 1.41 µM [activator, partial curve, poor fit].
In the case of CN1C(=O)c2cccc3c(S(=O)(=O)Nc4ccccn4)ccc1c23, the Potency is reported as inconclusive: 5.01 µM [activator, partial curve].
In the case of N=C(N)SCc1ccccc1Cl, the Potency is reported as inconclusive: 31.6 µM [activator, single point].
In the case of CCOC(=O)C1CCCN(c2nc3c(S(=O)(=O)c4ccc(C)c(C)c4)nnn3c3ccc(Cl)cc23)C1 (stereo unspecified), the Potency is reported as “inactive”.
In the case of O=C(Nn1cnc2ccccc2c1=O)c1ccccc1Cl, the Potency is reported as inconclusive: 12.6 µM [activator, single point].
In the case of Cc1ccc(SCC(=O)Nc2ccc(-c3nc4ccccc4[nH]3)cc2)cc1, the Potency is reported as active: 5.62 µM.
With COc1cc(OC)c(C2=NOC(C(=O)Nc3cc(C)nn3-c3ccccc3)C2)cc1Cl (stereo unspecified) the Potency was inconclusive: 0.02 µM [activator, full curve, poor fit].
With COc1ccc(S(=O)(=O)Nc2c(C)ccc3nsnc23)cc1OC the Potency was inconclusive: 1.78 µM [activator, full curve, poor fit].
With CCCC(=O)Nc1ccc(NC(=O)c2cccs2)cn1 the Potency was inconclusive: 14.1 µM [activator, single point].
With O=C(C[n+]1cn(C(F)F)c2ccccc21)c1ccc(OC(F)F)cc1 the Potency was inconclusive: 12.6 µM [activator, single point].
In the case of COc1ccc(OC(=O)c2cnn(-c3ccccc3)c2C)cc1, the Potency is reported as inconclusive: 6.31 µM [activator, full curve, poor fit].
